Measurements as given in PubChem BioAssay (NCI).
Values joined by “and” are separate entries in the source; they are usually repeats but may differ in a detail not shown here. Equal entries are not always repeated.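 All cell lines were grown in 96-well plates and treated with compound for 48 hours. GI50 = concentration required for 50% inhibition of growth. Definition used: TGI = concentration required for complete inhibition of growth.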

Tested on: NCI-H322M lung
Assay: DTP human tumour cell line panel, 48 h

c1ccc(SC(CCCCC(Sc2ccccc2)Sc2ccccc2)Sc2ccccc2)cc1
TGI: > 100 µM

C/C=C/[P+](c1ccccc1)(c1ccccc1)c1ccccc1
TGI: 24.2 µM

CCCCCCNC(=O)c1cnc(Cl)cn1
TGI: 13.6 µM

C=CC(=O)Nc1cccc(C)c1Nc1cc(-c2cccnc2Cc2c(C)c(OC)cc(OC)c2C)ncn1
GI50: 12.2 µM
TGI: 76.8 µM

CCN=C1C=CC(=C(c2ccc(N)cc2)c2ccc(N(CC)CC)c(C)c2)C=C1
GI50: 0.433 µM
TGI: 4.57 µM

COC(=O)c1ccc2c(O)c(O)ccc2c1
TGI: 30.9 µM

CCOC1(COP(=O)(OCc2ccccc2)OCc2ccccc2)COC(COP(=O)(OCc2ccccc2)OCc2ccccc2)(OCC)CO1 (stereo not drawn)
TGI: > 100 µM

COc1c2c(cc3oc(C)cc(=O)c13)OC(=N)C(C(N)=O)C2CC(=O)c1ccc(N)cc1 (stereo not drawn)
TGI: > 100 µM

COc1ccc(NS(=O)CCCc2ccccc2)cc1 (stereo not drawn)
TGI: > 100 µM

Brc1cccc(C2SCc3nc4ccccc4n32)c1 (stereo not drawn)
TGI: > 100 µM

O=c1oc2ccccc2c(Nc2ccc3c(c2)S(=O)(=O)c2ccccc2O3)c1[N+](=O)[O-]
TGI: > 100 µM

O=C(N/N=C/c1ccc2c(c1)CCC2)c1ccccc1O
TGI: 66 µM

C=Cc1c(C)c(OC)cc2c1Oc1ccc(OC)c(C)c1CC2
TGI: > 100 µM

N#Cc1c(N/N=C/c2c(Cl)cccc2Cl)nc(N)nc1N1CCOCC1
GI50: 56.8 µM
TGI: > 100 µM

CC(C)[C@@H]1NC(=O)[C@H]2N=C(O[C@@H]2C)[C@@H]2CCCN2C(=O)[C@H](Cc2ccccc2)NC(=O)[C@@H]2CSC(=N2)[C@@H](Cc2ccccc2)NC(=O)[C@@H]2CSC1=N2
TGI: > 50 µM

O=C(O)C1(P(=O)(O)O)CC1
TGI: > 100 µM

Cc1ccc(S(=O)(=O)NCCSCCNS(=O)(=O)c2ccc(C)cc2)cc1
TGI: > 100 µM

N#C/C(=C\c1c(-c2ccccc2)[nH]c2ccccc12)S(=O)(=O)c1ccccc1
GI50: 8.91 µM
TGI: > 100 µM

C[C@]12CC[C@H]3[C@@H](CCC4=CC(=O)CC[C@@H]43)[C@@H]1CC[C@@H]2OC(=O)CCc1ccccc1
GI50: 19.3 µM
TGI: 46.1 µM

CCCN(C(=O)c1c(Cl)nnc(Cl)c1C(=O)c1cc(Cl)nnc1Cl)c1cc(Cl)nnc1Cl
TGI: 27.4 µM

CC(=O)NC1=C(OS(=O)(=O)c2ccc(C)cc2)CN(C)C1=O
TGI: 32.1 µM

CCCCNCC(=O)O[C@]1(CC)C(=O)OCc2c1cc1n(c2=O)Cc2cc3ccccc3nc2-1
TGI: 5.62 µM

CCC1CN2CCc3cc(OC)c(OC)cc3C2CC1CC1c2cc(OC)c(OC)cc2CCN1C(=O)C1CCCN1C(=O)OCc1ccccc1 (stereo not drawn)
TGI: 51.4 µM

Cc1cc(N(CCC#N)CCC#N)ccc1/C=C/C(=O)Nc1cccc(Cl)c1
TGI: > 100 µM

CC1=NN(c2ccccc2)C(=O)/C1=C/c1ccc(O)cc1
TGI: > 100 µM

O=C1C(=O)c2c(nc3ccc(Cl)cn23)-c2ccccc21
GI50: 1.43 µM
TGI: 2.82 µM

O=C1C=C(Br)c2c(-c3ccccc3)oc3cccc1c23
TGI: > 100 µM

COc1cc2c(cc1OCCCCOc1cc3c(cc1OC)C(=O)N1CCC[C@H]1CN3)N=C[C@@H]1CCCN1C2=O
GI50: 3.9 µM
TGI: 15.1 µM

CC(C)(C)c1n[nH]c(=S)n(/N=C/c2ccc(F)c(Oc3ccccc3)c2)c1=O
GI50: 22 µM
TGI: 90.4 µM

O=c1cc(-c2ccccc2)[nH]c2cc(O)ccc12
TGI: > 100 µM

Cc1ccc(NC(=O)/C=C/c2ccccc2)c(C(N)=O)c1
GI50: 20 µM
TGI: > 100 µM

CCC(NC(C)c1ccccc1)C(O)c1ccc(OCc2ccccc2)c(OCc2ccccc2)c1 (stereo not drawn)
TGI: 27.9 µM

CN1CCN(Cc2ccc(NC(=O)c3cncc(C#Cc4cnc(N)c5ccncc45)c3)cc2C(F)(F)F)CC1
GI50: 0.631 µM
TGI: 6.5 µM

Cc1cc(NCc2cc(Nc3ccnc4cc(Cl)ccc34)ccc2F)nc(N2CCCC2)n1
GI50: 1.54 µM
TGI: 4.41 µM

CCOC(=O)C1=C(NC)OC/C1=N\NC(=O)c1ccccc1O
TGI: > 100 µM

CN(C)CCNC(=O)c1cccc2c(NCC(=O)O)c3ccccc3nc12
TGI: 73.5 µM

Cc1ccc(C(=O)Nc2ccc(CN3CCN(C)CC3)c(C(F)(F)F)c2)cc1C#Cc1cnc2cccnn12
GI50: 0.496 µM and 0.978 µM
TGI: 1.99 µM and 3.91 µM

CSc1nc(N)c(NC2OC(CO)C(O)C2O)c(=O)[nH]1 (stereo not drawn)
TGI: > 100 µM

CC1=C(N2CC2)C(=O)c2nc3n(c2C1=O)CCC3OC(=O)CCl (stereo not drawn)
TGI: 0.454 µM

COC(=O)C1=CSC2(S1)C(C(=O)OC)=CSc1c2ssc1=Nc1ccccc1 (stereo not drawn)
TGI: 20.7 µM

O=C(Cn1c2c(c3ccccc31)CCCC2)NC1CCCCC1
TGI: > 100 µM

Nn1c(-c2ccccc2Cl)nc2ccccc2c1=O
TGI: > 100 µM

CN(C(=O)Cc1cc(Cl)c(Cl)cc1N=C=S)[C@H]1CCCC[C@@H]1N1CCCC1
TGI: 29 µM

O=c1oc2ccccc2cc1/C=N/N1C(=S)N(c2ccccc2)C(=Nc2ccccc2)C1=Nc1ccccc1
TGI: > 100 µM

CCN(C(=O)N1CCN(c2cc3c(cc2F)c(=O)c(C(=O)O)cn3C2CC2)CC1)c1nc(-c2ccc(C)cc2)cs1
GI50: 0.421 µM
TGI: > 100 µM

CN(C)CCCNc1ccc2ncn3c4ccccc4c(=O)c1c23
TGI: 33.8 µM

CN(C)CCCNC(=O)N/N=C/c1cccc([N+](=O)[O-])c1
TGI: > 100 µM

C[C@@H]1CC[C@H]2C(COCCOCC3=C(C(F)(F)F)O[C@@H]4O[C@@]5(C)CC[C@H]6[C@H](C)CC[C@@H]3[C@@]46OO5)=C(C(F)(F)F)O[C@@H]3O[C@@]4(C)CC[C@@H]1[C@]32OO4
GI50: > 90.8 µM
TGI: > 100 µM

COC(=O)C1CCC(=O)N1CN(C(C)=O)c1ccccc1 (stereo not drawn)
TGI: > 100 µM
